# Data reported in the supplement of paper PMC8728848.
# This is one part of the list.
# Experiments:
# Test in all cases: glycan array binding signal (z-score within array); higher = stronger binding
# Conditions in all cases: glycan notation: IUPAC condensed, linker removed
# [1] = target: Gal(b1-3)GlcNAc(b1-3)Gal(b1-4)GlcNAc(b1-2)Man(a1-3)[Gal(b1-3)GlcNAc(b1-3)Gal(b1-4)GlcNAc(b1-2)Man(a1-6)]Man(b1-4)GlcNAc(b1-4)GlcNAc
# Summary of the method: (§1)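 Glycan array data were curated from 3228 arrays in the Consortium for Functional Glycomics database and kept only where the protein sequence was available. Glycan names were converted to IUPAC-condensed notation, and columns mapping to the same glycan were averaged. The binding signal is a within-array Z-score, averaged across arrays of the same protein sequence at different concentrations or buffers and across linkers. Negative Z-scores can be read as non-binding.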
# [2] = target: Gal(b1-3)GlcNAc(b1-3)Gal(b1-4)GlcNAc(b1-2)[Gal(b1-3)GlcNAc(b1-3)Gal(b1-4)GlcNAc(b1-6)]Man(a1-6)[Gal(b1-3)GlcNAc(b1-3)Gal(b1-4)GlcNAc(b1-2)Man(a1-3)]Man(b1-4)GlcNAc(b1-4)[Fuc(a1-6)]GlcNAc
# Summary of the method: as §1
# [3] = target: Gal(b1-3)GlcNAc(b1-3)Gal(b1-4)GlcNAc(b1-3)Gal(b1-4)GlcNAc(b1-2)[Gal(b1-3)GlcNAc(b1-3)Gal(b1-4)GlcNAc(b1-3)Gal(b1-4)GlcNAc(b1-6)]Man(a1-6)[Gal(b1-3)GlcNAc(b1-3)Gal(b1-4)GlcNAc(b1-3)Gal(b1-4)GlcNAc(b1-2)Man(a1-3)]Man(b1-4)GlcNAc(b1-4)[Fuc(a1-6)]GlcNAc
# Summary of the method: as §1
# [4] = target: Gal(b1-3)GlcNAc(b1-3)Gal(b1-4)GlcNAc(b1-6)[Gal(b1-3)GlcNAc(b1-3)]Gal(b1-4)Glc
# Summary of the method: as §1
# [5] = target: Gal(b1-3)GlcNAc(b1-3)Gal(b1-4)[Fuc(a1-3)]GlcNAc
# Summary of the method: as §1
# [6] = target: Gal(b1-3)GlcNAc(b1-3)Gal(b1-4)[Fuc(a1-3)]GlcNAc(b1-6)[Gal(b1-3)GlcNAc(b1-3)]Gal(b1-4)Glc
# Summary of the method: as §1
# [7] = target: Gal(b1-3)GlcNAc(b1-3)GalNAc
# Summary of the method: as §1
# [8] = target: Gal(b1-3)GlcNAc(b1-6)Gal(b1-4)GlcNAc
# Summary of the method: as §1
# [9] = target: Gal(b1-3)GlcNAc(b1-6)GalNAc
# Summary of the method: as §1
# [10] = target: Gal(b1-3)GlcNAc(b1-6)[Gal(b1-3)]GalNAc
# Summary of the method: as §1
# Gal(b1-3)GlcNAc6S = target: Gal(b1-3)GlcNAc6S
# Summary of the method: as §1
# [11] = target: Gal(b1-3)[Fuc(a1-4)]GlcNAc
# Summary of the method: as §1
# [12] = target: Gal(b1-3)[Fuc(a1-4)]GlcNAc(b1-2)Man
# Summary of the method: as §1
# [13] = target: Gal(b1-3)[Fuc(a1-4)]GlcNAc(b1-2)Man(a1-3)[Gal(b1-3)[Fuc(a1-4)]GlcNAc(b1-2)Man(a1-6)]Man(b1-4)GlcNAc(b1-4)[Fuc(a1-6)]GlcNAc
# Summary of the method: as §1
# [14] = target: Gal(b1-3)[Fuc(a1-4)]GlcNAc(b1-3)Gal(b1-3)[Fuc(a1-4)]GlcNAc
# Summary of the method: as §1
# [15] = target: Gal(b1-3)[Fuc(a1-4)]GlcNAc(b1-3)Gal(b1-4)[Fuc(a1-3)]GlcNAc
# Summary of the method: as §1
# [16] = target: Gal(b1-3)[Fuc(a1-4)]GlcNAc(b1-6)GalNAc
# Summary of the method: as §1
# [17] = target: Gal(b1-3)[GlcNAc(b1-6)]GalNAc
# Summary of the method: as §1
# [18] = target: Gal(b1-3)[Neu5Ac(a2-6)]GalNAc
# Summary of the method: as §1
# [19] = target: Gal(b1-3)[Neu5Ac(a2-6)]GlcNAc(b1-4)Gal(b1-4)Glc
# Summary of the method: as §1
# [20] = target: Gal(b1-3)[Neu5Ac(b2-6)]GalNAc
# Summary of the method: as §1
# Gal(b1-4)Gal = target: Gal(b1-4)Gal
# Summary of the method: as §1
# [21] = target: Gal(b1-4)GalNAc(a1-3)[Fuc(a1-2)]Gal(b1-4)GlcNAc
# Summary of the method: as §1
# [22] = target: Gal(b1-4)GalNAc(b1-3)[Fuc(a1-2)]Gal(b1-4)GlcNAc
# Summary of the method: as §1
# Gal(b1-4)Glc = target: Gal(b1-4)Glc
# Summary of the method: as §1
# Gal(b1-4)Glc6S = target: Gal(b1-4)Glc6S
# Summary of the method: as §1
# Gal(b1-4)GlcNAc = target: Gal(b1-4)GlcNAc
# Summary of the method: as §1
# [23] = target: Gal(b1-4)GlcNAc(a1-6)Gal(b1-4)GlcNAc
# Summary of the method: as §1
# Gal(b1-4)GlcNAc(b1-2)Man = target: Gal(b1-4)GlcNAc(b1-2)Man
# Summary of the method: as §1
# [24] = target: Gal(b1-4)GlcNAc(b1-2)Man(a1-3)Man(b1-4)GlcNAc(b1-4)GlcNAc
# Summary of the method: as §1
# [25] = target: Gal(b1-4)GlcNAc(b1-2)Man(a1-3)[Gal(b1-4)GlcNAc(b1-2)Man(a1-6)]Man(b1-4)GlcNAc(b1-4)GlcNAc
# Summary of the method: as §1
# [26] = target: Gal(b1-4)GlcNAc(b1-2)Man(a1-3)[Gal(b1-4)GlcNAc(b1-2)Man(a1-6)]Man(b1-4)GlcNAc(b1-4)[Fuc(a1-6)]GlcNAc
# Summary of the method: as §1
# [27] = target: Gal(b1-4)GlcNAc(b1-2)Man(a1-3)[Gal(b1-4)GlcNAc(b1-2)Man(a1-6)][Gal(b1-4)GlcNAc(b1-4)]Man(b1-4)GlcNAc(b1-4)[Fuc(a1-6)]GlcNAc
# Summary of the method: as §1
# [28] = target: Gal(b1-4)GlcNAc(b1-2)Man(a1-3)[Gal(b1-4)GlcNAc(b1-2)Man(a1-6)][GlcNAc(b1-4)]Man(b1-4)GlcNAc(b1-4)[Fuc(a1-6)]GlcNAc
# Summary of the method: as §1
# [29] = target: Gal(b1-4)GlcNAc(b1-2)Man(a1-3)[GlcNAc(b1-2)Man(a1-6)]Man(b1-4)GlcNAc(b1-4)GlcNAc
# Summary of the method: as §1
# [30] = target: Gal(b1-4)GlcNAc(b1-2)Man(a1-3)[GlcNAc(b1-4)][Gal(b1-4)GlcNAc(b1-2)Man(a1-6)]Man(b1-4)GlcNAc(b1-4)GlcNAc
# Summary of the method: as §1
# [31] = target: Gal(b1-4)GlcNAc(b1-2)Man(a1-3)[Man(a1-6)]Man(b1-4)GlcNAc(b1-4)GlcNAc
# Summary of the method: as §1
# [32] = target: Gal(b1-4)GlcNAc(b1-2)Man(a1-6)Man(b1-4)GlcNAc(b1-4)GlcNAc
# Summary of the method: as §1
binder,measurement,setting,value
Epa1 (Candida glabrata) (protein) MGSSHHHHHHSSGLVPRGSHMTSSNDISLASKDPTTFPLGCSPDITTPKKGLSMELYSYDFRKKGSYPCWDAAYLDPNYPRTGYKSHRLLAKVDGVTGNINFYYHATKGCTPQLGHLPASYNYPKPLTMTNFTMLLYGYFRPKVTGFHTFTISADDLLFVNFGAGNAFDCCRRDSSADHFGNYQAYAIWGSKTAKDELTVHLDAGVYYPIRLFYNNREYDGALSFTFKTESNENTVSDFSEYFFSLDDTEEGCPGLISYD,glycan array binding signal (z-score),[1],-0.271
same,glycan array binding signal (z-score),[2],0.065
same,glycan array binding signal (z-score),[3],0.143
same,glycan array binding signal (z-score),[4],0.489
same,glycan array binding signal (z-score),[5],-0.238
same,glycan array binding signal (z-score),[6],0.037
same,glycan array binding signal (z-score),[7],-0.22
same,glycan array binding signal (z-score),[8],1.69
same,glycan array binding signal (z-score),[9],-0.234
same,glycan array binding signal (z-score),[10],1.48
same,glycan array binding signal (z-score),Gal(b1-3)GlcNAc6S,0.176
same,glycan array binding signal (z-score),[11],-0.284
same,glycan array binding signal (z-score),[12],-0.247
same,glycan array binding signal (z-score),[13],-0.159
same,glycan array binding signal (z-score),[14],-0.296
same,glycan array binding signal (z-score),[15],-0.292
same,glycan array binding signal (z-score),[16],-0.199
same,glycan array binding signal (z-score),[17],2.17
same,glycan array binding signal (z-score),[18],4.22
same,glycan array binding signal (z-score),[19],-0.213
same,glycan array binding signal (z-score),[20],0.447
same,glycan array binding signal (z-score),Gal(b1-4)Gal,-0.163
same,glycan array binding signal (z-score),[21],-0.197
same,glycan array binding signal (z-score),[22],0.087
same,glycan array binding signal (z-score),Gal(b1-4)Glc,0.075
same,glycan array binding signal (z-score),Gal(b1-4)Glc6S,0.304
same,glycan array binding signal (z-score),Gal(b1-4)GlcNAc,0.542
same,glycan array binding signal (z-score),[23],2.77
same,glycan array binding signal (z-score),Gal(b1-4)GlcNAc(b1-2)Man,-0.267
same,glycan array binding signal (z-score),[24],-0.119
same,glycan array binding signal (z-score),[25],0.01
same,glycan array binding signal (z-score),[26],-0.125
same,glycan array binding signal (z-score),[27],-0.253
same,glycan array binding signal (z-score),[28],-0.284
same,glycan array binding signal (z-score),[29],-0.212
same,glycan array binding signal (z-score),[30],-0.209
same,glycan array binding signal (z-score),[31],-0.115
same,glycan array binding signal (z-score),[32],-0.208
